About 14,000 (4.5%) of roughly 310,000 compounds showed an effect of 50% or more. The effect is printed as a negative number. This is one part of the list.
Molecular target: human ether-à-go-go-related gene (hERG) potassium channel (human, UniProt Q12809)
Test: primary screen, population patch clamp on CHO cells stably expressing hERG
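Further: peak tail current of the secondary pulse compared with the same well before compound.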

Chain of human ether-à-go-go-related gene (hERG) potassium channel (Q12809 whole entry, looked up): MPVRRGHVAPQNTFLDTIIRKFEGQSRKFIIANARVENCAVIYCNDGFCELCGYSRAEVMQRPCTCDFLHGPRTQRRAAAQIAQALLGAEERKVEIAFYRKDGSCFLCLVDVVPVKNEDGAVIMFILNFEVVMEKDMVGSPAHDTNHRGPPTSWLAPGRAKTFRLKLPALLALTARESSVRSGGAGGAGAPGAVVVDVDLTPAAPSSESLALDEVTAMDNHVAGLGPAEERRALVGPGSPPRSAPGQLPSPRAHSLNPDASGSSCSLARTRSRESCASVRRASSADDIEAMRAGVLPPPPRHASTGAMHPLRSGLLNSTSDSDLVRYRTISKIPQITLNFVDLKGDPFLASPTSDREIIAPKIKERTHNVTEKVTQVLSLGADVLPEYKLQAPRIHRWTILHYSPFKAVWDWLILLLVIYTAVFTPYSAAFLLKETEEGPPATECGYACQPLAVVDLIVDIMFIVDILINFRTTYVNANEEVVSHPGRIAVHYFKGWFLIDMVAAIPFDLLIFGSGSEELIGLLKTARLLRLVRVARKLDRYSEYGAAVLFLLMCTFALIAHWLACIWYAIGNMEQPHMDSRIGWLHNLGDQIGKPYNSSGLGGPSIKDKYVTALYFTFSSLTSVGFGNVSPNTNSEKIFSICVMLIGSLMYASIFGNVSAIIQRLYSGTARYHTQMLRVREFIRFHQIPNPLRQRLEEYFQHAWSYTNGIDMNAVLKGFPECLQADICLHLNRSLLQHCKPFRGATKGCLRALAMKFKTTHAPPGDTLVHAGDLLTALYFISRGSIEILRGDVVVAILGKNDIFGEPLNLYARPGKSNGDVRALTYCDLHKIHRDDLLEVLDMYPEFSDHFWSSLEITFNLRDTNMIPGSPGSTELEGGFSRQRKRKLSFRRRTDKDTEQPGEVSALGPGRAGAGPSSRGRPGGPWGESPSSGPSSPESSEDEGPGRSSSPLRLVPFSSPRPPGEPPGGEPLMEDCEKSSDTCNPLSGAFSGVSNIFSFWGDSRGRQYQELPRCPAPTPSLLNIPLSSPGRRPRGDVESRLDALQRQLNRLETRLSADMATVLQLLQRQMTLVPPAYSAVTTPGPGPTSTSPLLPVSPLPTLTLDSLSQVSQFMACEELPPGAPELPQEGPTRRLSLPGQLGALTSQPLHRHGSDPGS

SMILES | hERG current change (%, negative = inhibition) at 10uM [%]
Cn1nnc(NC(=S)NC(=O)c2cc3ccccc3o2)n1 | 17.7
CC(C)COc1ccc(C(=O)NNC(=O)c2ccc(=O)[nH]c2)cc1 | -1.31
CCC(=O)Nc1ccc(C=C(C(C)=O)C(C)=O)cc1 | 16.9
Cc1cc(C)c(S(=O)(=O)NC2CC(C)(C)NC(C)(C)C2)cc1Br | -15.8
CCCc1cc(=O)[nH]c(SCC(=O)N2CCOCC2)n1 | 13.3
CCOC(=O)C1CCCN(C(=O)CN2C(=O)COc3ccc(C(C)(C)C)cc32)C1 (centres unmarked) | -21.4
CCOC(=O)N1CCC(NC(=O)c2cc(C(=O)Nc3ccc(F)cc3F)ccc2CO)CC1 | -6.2
CNS(=O)(=O)c1cccc(C(=O)NCC(C)(C)N2CCCCC2)c1 | 9.27
CCOc1ccc(CCNC(=O)COC(=O)CNS(=O)(=O)c2ccc(C)cc2)cc1OCC | -17.8
C=CCOCCN(CCOCC=C)C1=NS(=O)(=O)c2ccccc21 | 12.5
Cc1ccc(OC(=O)C2CCN(C(=O)c3ccccc3C)CC2)c(Br)c1 | -21
CC(=O)N1CCc2cc(S(=O)(=O)CCC(=O)NCc3ccc(Cl)cc3)ccc21 | -9.26
O=[N+]([O-])c1ccc2c3n([n+]([O-])c2c1)CCN=C3c1ccc(Cl)cc1 | -29.6
O=C(Cc1ccc(Cl)c(Cl)c1)N/N=C/c1cccnc1 | -40
Cc1ccc(NC(=O)c2cc(-n3cnnc3)ccc2Cl)cc1 | -15.6
COc1cccc(N2C(=O)CC(Sc3nc(C)cc(C)n3)C2=O)c1 (centres unmarked) | 10.6
COc1cc(C(=O)O/N=C(\N)c2ccccn2)cc(OC)c1OC | 7.17
COC(=O)/C=C/CC(C)OS(N)(=O)=O (centres unmarked) | 13
CC/C(=N/Nc1cccc(C)c1)c1cnnc(SC)n1 | 8.51
COc1nnc(-c2ccc(C)c(S(=O)(=O)NCC3CCCO3)c2)c2ccccc12 (centres unmarked) | -69.5
COc1ccc(N2CC(C(=O)NC3=NCCS3)CC2=O)cc1 (centres unmarked) | 2.12
CC(NS(=O)(=O)c1ccccc1)C(N)=O (centres unmarked) | -6.6

SMILES | hERG current change (%, negative = inhibition) at 10uM [%]
Cc1ccc2nc3c(cc2c1)c(NC(=O)c1ccccn1)nn3CC(C)C | -9.05
CCOC(=O)CC(=O)NC1(Cc2ccc(O)cc2)CCCCC1 | 1.06
CC(C)CC1CCCCC1OC(=O)C[N+]1(C)CCCCC1.[I-] (centres unmarked) | -3.45
Cc1cc(C)c2c(n1)SCC(=O)N2CC(=O)Nc1ccc(C)c(C)c1 | -1.35
CC(=O)Nc1ccc(N/C=C/C(=O)C(C)(C)C)cc1 | -4.12
CCn1c(C(=O)O)c(CC(=O)Nc2ccccc2F)c2ccccc21 | 16
Cn1cc(C(=O)Nc2ccc(Cl)cc2)c(C(F)(F)F)n1 | 4.82
Cc1cc(C)cc(-n2c(C)cc(C(=S)N3CCOCC3)c2C)c1 | -21.1
CC1CCC(NC(=O)C2CCN(c3cnccn3)CC2)CC1 (centres unmarked) | -3.55
Cc1ccccc1NC(=O)/C=C/c1cccs1 | -33.1
CCCn1c(=O)c2ccccc2n2c(SCC(=O)c3ccc(CC)cc3)nnc12 | -9.29
S=C(NCc1ccccc1)Nc1nccs1 | 1.6
O=C(COc1ccc(F)cc1Br)N1CCN(S(=O)(=O)/C=C/c2ccccc2)CC1 | -19.7
O=C(NCc1ccccn1)Nc1ccc(Br)cc1 | 9.62
ONC(=Nc1ccc(Cl)cc1)c1ccccc1 | -3.76
Cc1cccc(OCc2nnc(SCC(=O)Nc3cccc(C(=O)N4CCOCC4)c3)n2C)c1 | 13.6
COC(=O)c1ccccc1NC(=O)Cn1nnc(-c2ccc3c(c2)OCO3)n1 | 2.29
O=C(Oc1ccc(C(=S)N2CCOCC2)cc1)c1ccc([N+](=O)[O-])cc1[N+](=O)[O-] | 8.56
CCc1c(C(=O)N/N=C/c2sccc2C)nnn1-c1nonc1N | 14.9
CCOc1ccccc1Nc1nc(-c2sc(C)nc2C)cs1 | 20.3
CCOc1ccc(C(=O)Nc2c3c(nn2C(C)(C)C)CSC3)cc1OCC | -1.49
CCc1noc(C)c1C(=O)N1CCN(S(=O)(=O)c2cccc(C(F)(F)F)c2)CC1 | -9.29

From article PMC4336329 (PLoS ONE, 2015)
